The whole screen tested about 120,000 compounds, of which about 5,300 (4.4%) were called active. Inconclusive results, whose numbers are uncertain, are shown with a selection of clear calls. Calls follow the shape of the dose curve; as a rule, active = well fitted inhibition curve with a large enough effect; inconclusive = small, poorly fitted or top-dose-only effect; inactive = no such curve, though single readings can be large or run the other way. Potencies beside an inconclusive call are fits to weak or partial responses and may not hold up.
Assay: qHTS Primary assay for Inhibitors of Plasmodium falciparum Dd2 growth in vitro; also: nearly all actives have a fitted effect of over 65% in size
Settings: P. falciparum Dd2 growth, SYBR Green, 72 h; series mostly up to 28.9 µM
How it was run: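 Readout: SYBR Green fluorescence, 485 nm excitation, 535 nm emission, after ~16 h lysis at 37C. Before that, Dd2-infected red cells (2.5% hematocrit) grew 72 h with compound, 29 uM top final concentration.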
Potency is read from the fitted curve at half-maximal effect; tags tell the direction and shape of the fitted curve.

| SMILES | Potency |
| --- | --- |
| O=C(CC1C(=O)NCCN1Cc1cccc(Oc2ccccc2)c1)NCc1ccco1 (stereo not drawn) | inconclusive: 0.158 µM [inhibitor, full curve, poor fit] |
| N#CC1CCN(C(=O)c2nc(-c3ccc(Cl)cc3)c3ccccn23)CC1 | inconclusive: 10 µM [inhibitor, single point] |
| O=C1NC2(CCN(Cc3ccsc3)C2)COc2ccccc21 (stereo not drawn) | inconclusive: 3.16 µM [inhibitor, partial curve, poor fit] |
| CC(C)Cc1nc(CN2C[C@@H]3CC[C@H](C2)N(Cc2ccccc2)C3)no1 | active: 10 µM |
| Cc1ccc(C2Cn3cnc(C(=O)N4CCC(C(=O)NCc5cccs5)CC4)c3CO2)cc1 (stereo not drawn) | inconclusive: 4.47 µM [inhibitor, single point] |
| COCCOC1CN(C2CCN(C(=O)c3cccc(C)c3)CC2)C12CCCCC2 (stereo not drawn) | inconclusive: 15.8 µM [inhibitor, partial curve, poor fit] |
| COc1ccc(-c2nc3sc(CCNC(=O)c4ccc(Br)o4)c(C)n3n2)cc1 | active: 8.91 µM |
| CC(C)(C)c1cnc(-c2ccccc2)[nH]1 | inconclusive: 12.6 µM [inhibitor, partial curve] |
| Cc1cccc(S(=O)(=O)c2cn(Cc3ccccc3)c3cc(N4CCCCC4)c(F)cc3c2=O)c1 | inconclusive: 17.8 µM [inhibitor, single point] |
| Cn1nc(C2CCCCC2)cc1[C@H]1CN2CC[C@H]1C[C@@H]2CNC(=O)NCc1ccccc1 | inconclusive: 5.01 µM [inhibitor, partial curve, poor fit] |
| Cn1c(C(=O)NC2CCN(Cc3ccccc3)CC2)cc2c1CCN(Cc1ccccc1)C2 | inactive |
| O=C(c1ccc2c(c1)N(Cc1ccc(F)cc1)C(=O)c1ccccc1S2(=O)=O)N1CCCCC1 | inconclusive: 8.91 µM [inhibitor, single point] |
| Cc1ccc(-c2nn3c(C)nnc3c3ccccc23)cc1S(=O)(=O)NCC(C)O (stereo not drawn) | inconclusive: 11.2 µM [inhibitor, single point] |
| COc1cccc(CN2CCCCCCNC(=O)CC2c2ccccc2)c1 (stereo not drawn) | inconclusive: 6.31 µM [inhibitor, partial curve, poor fit] |
| Cc1ccc(NC(=O)N2CCC(CCN)CC2)cc1 | inactive |
| C[C@@H]1C(=O)O[C@H]2[C@H]1CC[C@@]1(C)Cc3sc(Nc4cccnc4)nc3[C@@H](C)[C@H]21 | inconclusive: 11.2 µM [inhibitor, partial curve, poor fit] |
| COCC(=O)N1CCC2(CC1)CN(c1ccccc1)C2=O | inactive |
| Cc1ccc(-n2ncc(C(=O)NCc3ccco3)c2C2CCN(C(=O)OC(C)(C)C)CC2)cc1C | active: 11.2 µM |
| COc1cc(NC(=O)c2cc3cc4ccc(C)cc4nc3o2)cc(OC)c1OC | inconclusive: 10 µM [inhibitor, single point] |
| CCN1c2cc(C(=O)Nc3cc(OC)cc(OC)c3)ccc2C(=O)N2CCCCC21 (stereo not drawn) | inconclusive: 3.98 µM [inhibitor, single point] |
| O=C(CSc1nc(-c2cccc(F)c2)[nH]c1-c1ccccc1)Nc1ccc2c(c1)OCO2 | inconclusive: 10 µM [inhibitor, single point] |

| SMILES | Potency |
| --- | --- |
| CN1CCCC12Cc1ccccc1CN(C(=O)C1CCCC1)C2 (stereo not drawn) | inconclusive: 10 µM [inhibitor, single point] |
| O=c1c2ccccc2nc(/C=C/c2ccccc2O)n1-c1ccc(Br)cc1 | inconclusive: 10 µM [inhibitor, partial curve, poor fit] |
| COc1cc2nc(SCc3ccc(C)cc3)n3nc(CCn4nc(C)cc4C)nc3c2cc1OC | inconclusive: 0.794 µM [inhibitor, partial curve, poor fit] |
| Cc1cc(C(=O)NCc2c(C)ncc3c2CCNC3)ccc1F | inconclusive: 17.8 µM [inhibitor, single point] |
| CC1(C)[C@H]2CC[C@@H](CNC(=O)c3ccc(Cl)cc3)[C@@H]1C2 | inconclusive: 10 µM [inhibitor, single point] |
| CC(C)Cn1c(-c2cccc(Br)c2)nc2ccccc21 | inconclusive: 17.8 µM [inhibitor, single point] |
| O=C(Cc1ccccn1)N1CCc2nc(-c3ccccc3)nc(-c3ccc(Cl)cc3)c2C1 | inconclusive: 17.8 µM [inhibitor, single point] |
| O=C(NC1CCN(C(=O)N2CC3CC(C2)[C@H]2CCCC(=O)N2C3)CC1)c1ccc2ncccc2c1 (stereo partly drawn) | inconclusive: 11.2 µM [inhibitor, single point] |
| O=C(Cc1ccccc1Cl)NCc1nnc2ccc(-c3ccccc3)nn12 | inactive |
| Cc1ccc(C(=O)N2CCCN(C(=O)C3CC3)c3ccccc32)cc1F | inconclusive: 20 µM [inhibitor, single point] |
| COc1ccccc1N1CCN(C(=O)C2CCCN(S(=O)(=O)c3ccc4c(c3)CCCN4C(C)=O)C2)CC1 (stereo not drawn) | inconclusive: 10 µM [inhibitor, single point] |
| COc1cc(OC(F)(F)F)ccc1C(=O)NCc1nnc2n1C(C(=O)O)CC2 (stereo not drawn) | inactive |
| COc1ccc(C2C(C(=O)OC(C)(C)C)=C(C)N=C3SC=C(CC(=O)N4CCCC4)N32)cc1OC (stereo not drawn) | inconclusive: 3.98 µM [inhibitor, single point] |
| CCN(Cc1ccccc1)C(=O)CCC[C@@H]1[C@H]2CCCN3CCC[C@@H](CN1Cc1cccnc1)[C@@H]23 | inconclusive: 1.78 µM [inhibitor, partial curve, poor fit] |
| COc1ccc2[nH]c3c(c2c1)CCNC31CCN(Cc2ccc(C)o2)CC1 | inconclusive: 7.94 µM [inhibitor, partial curve, poor fit] |
| c1ccc2c(c1)CCCN2CCCNc1ncncn1 | inactive |
| CCCCCC(=O)Nc1nc2c(s1)C[C@@H]1[C@](C)(CO)[C@H](O)CC[C@@]1(C)[C@@H]2CC(=O)NCc1ccccc1 | inactive |
| CCCS(=O)(=O)NC[C@H]1C[C@@H]2CCN1C[C@@H]2c1cc(-c2ccccc2)nc(C)n1 | inconclusive: 10 µM [inhibitor, partial curve, poor fit] |
| COC(=O)c1cccc(NC(=O)N2CCC3(CCC(=O)N(Cc4ccccc4)CC3)CC2)c1 | inactive |
| CC(C)(Oc1ccccc1)C(=O)N1CCCn2nc(C(=O)N3CCOCC3)cc2C1 | inactive |
| CC(C)C(=O)N1CCC2(CC1)OC(=O)N(Cc1ccccc1F)C2(C)c1ccccc1 (stereo not drawn) | inconclusive: 11.2 µM [inhibitor, partial curve] |

| SMILES | Potency |
| --- | --- |
| CN(C)CCOCC1(C)COc2ccc(C(=O)Nc3cccc(Cl)c3)cc2N1 (stereo not drawn) | inconclusive: 1.41 µM [inhibitor, full curve] |
| COc1ccc(NC(=O)C2CCN(S(=O)(=O)c3c(C)noc3/C=C/c3cccs3)CC2)cc1Cl | inconclusive: 7.08 µM [inhibitor, partial curve, poor fit] |
| O=C(NCCSc1c[nH]c2ccccc12)c1ccccc1Cl | inconclusive: 20 µM [inhibitor, single point] |
| CC(C)C[C@@H]1N[C@H](C(=O)NCC2CC2)Cc2cn(Cc3ccncc3)c3cccc1c23 | inconclusive: 10 µM [inhibitor, partial curve, poor fit] |
| CN(C)C[C@@H]1CN(S(C)(=O)=O)C[C@H]1NC(=O)c1ccc(Cl)s1 | inconclusive: 3.55 µM [inhibitor, partial curve, poor fit] |
| O=C(CCC[C@@H]1[C@H]2CCCN3CCC[C@@H](CN1Cc1ccccc1)[C@@H]23)NCc1ccncc1 | inconclusive: 11.2 µM [inhibitor, partial curve, poor fit] |
| COC(=O)Cc1c(C)c2ccc3c(c2oc1=O)CN(Cc1ccccc1Cl)CO3 | active: 7.08 µM |
| CCOCCc1nc(C2CCOC2)nn1C1CCCCC1 (stereo not drawn) | inactive |
| CC(=O)N1Cc2ccccc2CC2(CCCCN2Cc2ccncc2)C1 (stereo not drawn) | inconclusive: 10 µM [inhibitor, single point] |
| NC1(C(=O)NCCC2CCCN(Cc3ccc4occc4c3)C2)CC1 (stereo not drawn) | inconclusive: 12.6 µM [inhibitor, single point] |
| CN1CCN([C@H]2[C@@H]3OC[C@@H](O3)[C@@H](NCc3ccc(-c4ccccc4)cc3)[C@@H]2O)CC1 | inconclusive: 3.16 µM [inhibitor, partial curve] |
| Cc1ccccc1Nc1c(-c2ccc(N3CCOCC3)cc2)nc2ccc(Br)cn12 | active: 8.91 µM |
| CCC(NC(=O)c1ccc2nc(-c3ccc(F)cc3)cn2c1)c1ncc(C)[nH]1 (stereo not drawn) | active: 7.94 µM |
| CN1CCC2(C1)CN(CC1CC1)c1ccc(C(=O)NCCOc3ccccc3)cc12 (stereo not drawn) | inconclusive: 22.4 µM [inhibitor, single point] |
| CN(C)C(=O)C1CN(C(=O)c2ccc(Br)o2)CC12CCOCC2 (stereo not drawn) | inactive |
| CCCNC(=O)C1C(c2ccc(NC(=O)c3ccco3)cc2)OC(=O)N1Cc1ccccc1 (stereo not drawn) | inactive |
| COc1cccc(Cn2cc(C(=O)c3ccc(Cl)cc3)c(=O)c3ccccc32)c1 | active: 14.1 µM |
| CCC(C)NC(=O)c1cc2n(n1)CC(c1ccc3c(c1)OCO3)OC2 (stereo not drawn) | inconclusive: 8.91 µM [inhibitor, single point] |
| COc1ccc2[nH]cc(CCN=C(NC(=O)c3ccccc3OC)Nc3nc(C)cc(C)n3)c2c1 | inconclusive: 0.794 µM [inhibitor, partial curve, poor fit] |
| COc1cc2c(cc1OC)CN(C1CCCN(Cc3c(O)cccc3OC)C1)CC2 (stereo not drawn) | active: 10 µM |
| COCCNC(=O)c1ccc2c(c1)OCCN(c1cccc(OC(F)(F)F)c1)C2 | inconclusive: 11.2 µM [inhibitor, partial curve, poor fit] |
